Experimental data from the supplement of paper PMC10126150.
Values marked as one replicate rest on one cluster of the flow cell; about a third of the high ones do not repeat.

System: ATP
Assay: switch fluorescence ratio, 500 uM ATP over buffer (Cy3 cluster intensity, sum of 5 cycles each) (fold (ratio)); higher = stronger signal-on switching upon ATP binding; sequences stand for … in TCGTCGGCAGCGTCAGATGTGTATAAGAGACAGTTTTTTTTTTTTTTTTTTTTTTTTT…TC
Conditions: aptamer strand: ATP DNA aptamer (quencher-CACCTGGGGGAGTATTGCGGAGGAAGG + anchor), 100 nM annealed; ATP concentration: 500 uM; one replicate
Summary of the method: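 Per cluster, summed Cy3 intensity from the target cycles was divided by that from the buffer cycles to give the fluorescence ratio, then averaged per switch-domain sequence. Clusters outside 100-1000 RFU were excluded. The Cy3-labelled switching-strand clusters, on a modified Illumina MiSeq flow-cell, were annealed to 100 nM quencher-labelled ATP aptamer and imaged in selection buffer, then after 15 min with 500 uM ATP at 22 °C, for five cycles with NaOH stripping and re-annealing between them.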
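Note: ATP exposure 15 min at 22 °C before imaging.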

Question: TATCTAAGAA was tested. Which switch fluorescence ratio did it give?
Answer: The switch fluorescence ratio was 1.01.

Question: With GCAGTACAGT as the sequence, how does the switch fluorescence ratio read?
Answer: Its switch fluorescence ratio is 1.1.

Question: Which switch fluorescence ratio does the source give for TGCCTATCTT here?
Answer: The switch fluorescence ratio was 0.977.

Question: GGTTAGAGGC was tested. Which switch fluorescence ratio did it give?
Answer: The switch fluorescence ratio was 0.988.

Question: CAGCTAAAT was tested. Which switch fluorescence ratio did it give?
Answer: Its switch fluorescence ratio is 1.06.

Question: For ACAATGGGA, which switch fluorescence ratio is on record?
Answer: Its switch fluorescence ratio is 0.938.

Question: How did the switch fluorescence ratio turn out when GGGGCGGATA was run?
Answer: The switch fluorescence ratio was 1.01.

Question: With GTGCAAGCTG as the sequence, how does the switch fluorescence ratio read?
Answer: Its switch fluorescence ratio is 1.02.

Question: AGCATTAAGT was tested. Which switch fluorescence ratio did it give?
Answer: Its switch fluorescence ratio is 0.966.

Question: ACCCATCTAT was tested. Which switch fluorescence ratio did it give?
Answer: The switch fluorescence ratio was 1.06.

Question: With ACACATTTT as the sequence, how does the switch fluorescence ratio read?
Answer: Its switch fluorescence ratio is 0.982.

Question: With TATGATGATG as the sequence, how does the switch fluorescence ratio read?
Answer: The switch fluorescence ratio was 0.982.

Question: How did the switch fluorescence ratio turn out when TCCCGGTTCC was run?
Answer: Its switch fluorescence ratio is 1.04.

Question: With CGGTTACAAT as the sequence, how does the switch fluorescence ratio read?
Answer: The switch fluorescence ratio was 1.03.

Question: How did the switch fluorescence ratio turn out when GAACACGAAC was run?
Answer: The switch fluorescence ratio was 1.53.

Question: How did the switch fluorescence ratio turn out when TCCAGATTGG was run?
Answer: Its switch fluorescence ratio is 1.01.

Question: How did the switch fluorescence ratio turn out when TACCTAGATC was run?
Answer: The switch fluorescence ratio was 1.04.

Question: TCCGTCAAGG was tested. Which switch fluorescence ratio did it give?
Answer: The switch fluorescence ratio was 1.07.

Question: TGCCTGAGTA was tested. Which switch fluorescence ratio did it give?
Answer: The switch fluorescence ratio was 0.978.

Question: With AGAGCTTAAA as the sequence, how does the switch fluorescence ratio read?
Answer: Its switch fluorescence ratio is 0.986.

Question: For CGTGACCATC, which switch fluorescence ratio is on record?
Answer: The switch fluorescence ratio was 1.04.

Question: With TAAGAGGTCC as the sequence, how does the switch fluorescence ratio read?
Answer: The switch fluorescence ratio was 1.05.

Question: How did the switch fluorescence ratio turn out when GTTGGTAGAT was run?
Answer: Its switch fluorescence ratio is 0.996.

Question: How did the switch fluorescence ratio turn out when TCAGTCCAC was run?
Answer: The switch fluorescence ratio was 1.

Question: ATTTCGCATG was tested. Which switch fluorescence ratio did it give?
Answer: The switch fluorescence ratio was 1.02.

Question: Which switch fluorescence ratio does the source give for CTGTGGTTTC here?
Answer: The switch fluorescence ratio was 1.01.

Question: How did the switch fluorescence ratio turn out when TCGGAAAACT was run?
Answer: The switch fluorescence ratio was 1.11.

Question: For CTGCCTTAAT, which switch fluorescence ratio is on record?
Answer: Its switch fluorescence ratio is 1.02.

Question: How did the switch fluorescence ratio turn out when TCGGCTTACC was run?
Answer: The switch fluorescence ratio was 1.03.

Question: AACTAGGA was tested. Which switch fluorescence ratio did it give?
Answer: Its switch fluorescence ratio is 1.02.

Question: With GAAGAACTAC as the sequence, how does the switch fluorescence ratio read?
Answer: The switch fluorescence ratio was 1.3.

Question: With CTAATAGGAC as the sequence, how does the switch fluorescence ratio read?
Answer: Its switch fluorescence ratio is 1.02.

Question: Which switch fluorescence ratio does the source give for GGGACTCGTA here?
Answer: Its switch fluorescence ratio is 0.965.

Question: Which switch fluorescence ratio does the source give for CGAATCATCG here?
Answer: The switch fluorescence ratio was 1.02.

Question: Which switch fluorescence ratio does the source give for AGTTGCCTGG here?
Answer: The switch fluorescence ratio was 1.01.

Question: For CCCTTAGTTG, which switch fluorescence ratio is on record?
Answer: The switch fluorescence ratio was 1.04.

Question: Which switch fluorescence ratio does the source give for GCTATACGG here?
Answer: The switch fluorescence ratio was 1.39.

Question: With CATGGTCAAT as the sequence, how does the switch fluorescence ratio read?
Answer: The switch fluorescence ratio was 1.06.

Question: With GCCGATAAGT as the sequence, how does the switch fluorescence ratio read?
Answer: Its switch fluorescence ratio is 0.994.

Question: How did the switch fluorescence ratio turn out when TCGCTGTAGA was run?
Answer: The switch fluorescence ratio was 1.03.

Question: With CGCACATGCA as the sequence, how does the switch fluorescence ratio read?
Answer: The switch fluorescence ratio was 1.26.

Question: For GGTTGCTAAG, which switch fluorescence ratio is on record?
Answer: Its switch fluorescence ratio is 1.03.

Question: Which switch fluorescence ratio does the source give for TACGATCAGT here?
Answer: The switch fluorescence ratio was 1.03.

Question: Which switch fluorescence ratio does the source give for TCTGGGCGGC here?
Answer: The switch fluorescence ratio was 1.01.

Question: For ATCTAGCGAG, which switch fluorescence ratio is on record?
Answer: The switch fluorescence ratio was 1.04.

Question: For AAGGCCGTA, which switch fluorescence ratio is on record?
Answer: The switch fluorescence ratio was 0.971.

Question: With GTGTAAGGC as the sequence, how does the switch fluorescence ratio read?
Answer: The switch fluorescence ratio was 1.09.

Question: Which switch fluorescence ratio does the source give for TATGGACGAT here?
Answer: Its switch fluorescence ratio is 0.984.

Question: How did the switch fluorescence ratio turn out when GACGGCGCAA was run?
Answer: The switch fluorescence ratio was 4.19.

Question: How did the switch fluorescence ratio turn out when GAGGTCGTA was run?
Answer: Its switch fluorescence ratio is 0.992.

Question: For AGAAATTAAG, which switch fluorescence ratio is on record?
Answer: Its switch fluorescence ratio is 1.

Question: How did the switch fluorescence ratio turn out when ATTCTCGAGT was run?
Answer: The switch fluorescence ratio was 0.971.

Question: How did the switch fluorescence ratio turn out when ATATCTTAGG was run?
Answer: Its switch fluorescence ratio is 0.983.

Question: For ATGACGGA, which switch fluorescence ratio is on record?
Answer: The switch fluorescence ratio was 1.04.

Question: TACCGAGTTC was tested. Which switch fluorescence ratio did it give?
Answer: The switch fluorescence ratio was 1.03.

Question: With GATAACATGG as the sequence, how does the switch fluorescence ratio read?
Answer: Its switch fluorescence ratio is 1.02.

Question: For TAAAGCCACG, which switch fluorescence ratio is on record?
Answer: Its switch fluorescence ratio is 1.05.

Question: Which switch fluorescence ratio does the source give for GCCGTAGAGT here?
Answer: The switch fluorescence ratio was 1.

Question: GAATTGCTCT was tested. Which switch fluorescence ratio did it give?
Answer: Its switch fluorescence ratio is 0.949.

Question: TCGTATATAA was tested. Which switch fluorescence ratio did it give?
Answer: Its switch fluorescence ratio is 1.04.

Question: For CGGGCTGACT, which switch fluorescence ratio is on record?
Answer: Its switch fluorescence ratio is 0.981.

Question: How did the switch fluorescence ratio turn out when CTACACAGCA was run?
Answer: The switch fluorescence ratio was 1.08.

Question: GAAGTCTTGT was tested. Which switch fluorescence ratio did it give?
Answer: Its switch fluorescence ratio is 0.957.

Question: TACGGTATCT was tested. Which switch fluorescence ratio did it give?
Answer: Its switch fluorescence ratio is 1.15.

Question: For AGTTGTGAAT, which switch fluorescence ratio is on record?
Answer: The switch fluorescence ratio was 0.957.

Question: For ATTAGTTGGT, which switch fluorescence ratio is on record?
Answer: Its switch fluorescence ratio is 0.992.

Question: How did the switch fluorescence ratio turn out when AGACACTTGG was run?
Answer: Its switch fluorescence ratio is 0.965.

Question: With GGATTATTGA as the sequence, how does the switch fluorescence ratio read?
Answer: Its switch fluorescence ratio is 0.963.

Question: For CGTACGCGAC, which switch fluorescence ratio is on record?
Answer: Its switch fluorescence ratio is 3.39.

Question: How did the switch fluorescence ratio turn out when CTAGGAGCC was run?
Answer: Its switch fluorescence ratio is 1.02.

Question: With TTCAGTTATT as the sequence, how does the switch fluorescence ratio read?
Answer: The switch fluorescence ratio was 1.04.

Question: TAAACAACGG was tested. Which switch fluorescence ratio did it give?
Answer: The switch fluorescence ratio was 1.06.

Question: ACGACAGGGT was tested. Which switch fluorescence ratio did it give?
Answer: The switch fluorescence ratio was 1.05.

Question: Which switch fluorescence ratio does the source give for CTTTTAATCA here?
Answer: The switch fluorescence ratio was 0.977.

Question: GACCGCTACA was tested. Which switch fluorescence ratio did it give?
Answer: The switch fluorescence ratio was 1.49.

Question: Which switch fluorescence ratio does the source give for AAAGTGAGAC here?
Answer: The switch fluorescence ratio was 1.04.

Question: Which switch fluorescence ratio does the source give for ACAACATGGC here?
Answer: Its switch fluorescence ratio is 1.21.

Question: Which switch fluorescence ratio does the source give for GAGTGTTTTC here?
Answer: Its switch fluorescence ratio is 0.99.

Question: With TGCACTGGTT as the sequence, how does the switch fluorescence ratio read?
Answer: Its switch fluorescence ratio is 1.02.

Question: AATCGCCAAG was tested. Which switch fluorescence ratio did it give?
Answer: The switch fluorescence ratio was 0.98.

Question: With GACCCTTTTG as the sequence, how does the switch fluorescence ratio read?
Answer: The switch fluorescence ratio was 0.966.

Question: For ATGACAGCAG, which switch fluorescence ratio is on record?
Answer: Its switch fluorescence ratio is 1.08.

Question: Which switch fluorescence ratio does the source give for GCTACATCAT here?
Answer: The switch fluorescence ratio was 1.03.

Question: AACCAGTGCA was tested. Which switch fluorescence ratio did it give?
Answer: The switch fluorescence ratio was 1.02.

Question: Which switch fluorescence ratio does the source give for TGTTTCTTAG here?
Answer: The switch fluorescence ratio was 1.02.

Question: How did the switch fluorescence ratio turn out when CTGTTTGTTC was run?
Answer: The switch fluorescence ratio was 0.967.

Question: Which switch fluorescence ratio does the source give for CGTGGAGCTG here?
Answer: Its switch fluorescence ratio is 0.95.

Question: For AAGCCGATGA, which switch fluorescence ratio is on record?
Answer: Its switch fluorescence ratio is 1.05.

Question: For CCGTACCGAA, which switch fluorescence ratio is on record?
Answer: The switch fluorescence ratio was 1.71.

Question: For GCGAATTCTG, which switch fluorescence ratio is on record?
Answer: The switch fluorescence ratio was 0.993.

Question: ACCGCGGTGC was tested. Which switch fluorescence ratio did it give?
Answer: Its switch fluorescence ratio is 2.94.

Question: Which switch fluorescence ratio does the source give for GGGGTAATAA here?
Answer: The switch fluorescence ratio was 1.52.

Question: How did the switch fluorescence ratio turn out when CGGGTCGGTG was run?
Answer: Its switch fluorescence ratio is 0.966.

Question: With AATAGTACGA as the sequence, how does the switch fluorescence ratio read?
Answer: The switch fluorescence ratio was 1.06.

Question: How did the switch fluorescence ratio turn out when TATCAATTGA was run?
Answer: The switch fluorescence ratio was 1.03.

Question: Which switch fluorescence ratio does the source give for TTGGTGGG here?
Answer: The switch fluorescence ratio was 0.992.

Question: AGAGGACTTG was tested. Which switch fluorescence ratio did it give?
Answer: Its switch fluorescence ratio is 1.05.

Question: For GGGGAAATGT, which switch fluorescence ratio is on record?
Answer: Its switch fluorescence ratio is 0.952.

Question: GTTTCTTAGG was tested. Which switch fluorescence ratio did it give?
Answer: The switch fluorescence ratio was 0.977.

Question: With GTTTGAGGTC as the sequence, how does the switch fluorescence ratio read?
Answer: Its switch fluorescence ratio is 1.

Question: Which switch fluorescence ratio does the source give for GCCTTATGTT here?
Answer: The switch fluorescence ratio was 0.975.
